# Where “and” joins values, the source holds several entries; their conditions need not be identical. Equal values may be shown once. Whole data set: some 2,900 compounds, median “NF-kB SEAP reporter activity, fold change vs agonist alone” near 0.99, cut for the highest 2% near 2.6. The list shows a part of the results.
# Key:
# [1] = system: RAW-Dual; experiment: NF-kB SEAP reporter activity, fold change vs agonist alone; cytotoxicity flag (confluency mask): not cytotoxic; higher = enhanced NF-kB activity
# How it was run: (§1)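 Library stock was pin-tooled at 50 nL into 384-well plates of RAW-Dual macrophages (50,000 cells/well, DMEM), followed 1 h later by a PRR agonist, and the cells were kept at 37 °C, 5% CO2. Supernatant collected after 20 hours was read for IRF by QuantiLuc luminescence and for NF-κB by QuantiBlue absorbance at 620 nm. Reporter activity is fold change over agonist-alone wells, and a well counted as cytotoxic when its IncuCyte confluency was below 70% of agonist controls in both mask sets.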
# [2] = system: RAW-Dual; experiment: NF-kB SEAP reporter activity, fold change vs agonist alone; higher = enhanced NF-kB activity
# How it was run: as §1
# [3] = system: RAW-Dual; experiment: NF-kB SEAP reporter activity, fold change vs agonist alone; cytotoxicity flag (confluency mask): cytotoxic (confluency <70% of control); higher = enhanced NF-kB activity
# How it was run: as §1
# [4] = agonist: ODN 1826 (TLR9) 0.5 ug/mL
# [5] = agonist: Pam2CSK4 (TLR2/6) 0.1 ug/mL
# [6] = agonist: Pam3CSK4 (TLR2/1) 0.1 ug/mL
# [7] = library stock concentration (final ~1000-fold dilution): 10 mM, cytotoxicity flag (confluency mask): not cytotoxic, agonist: Imiquimod (TLR7) […]
# [8] = library stock concentration (final ~1000-fold dilution): 10 mM, cytotoxicity flag (confluency mask): not cytotoxic, agonist: MPLA (TLR4) […]
smiles,measurement,setting,value
Cc1cc2c(cc1S(N)(=O)=O)S(=O)(=O)CCC2 (library stock concentration (final ~1000-fold dilution): 10 mM),NF-kB SEAP reporter activity,[1]; agonist: LPS (TLR4) 0.1 ug/mL,1.09
same,NF-kB SEAP reporter activity,[1]; [4],0.957
same,NF-kB SEAP reporter activity,[1]; [5],0.98
same,NF-kB SEAP reporter activity,[1]; [6],1.27
Cc1cc2c(cc1S(N)(=O)=O)S(=O)(=O)CCC2,NF-kB SEAP reporter activity,[2]; [7],0.914
same,NF-kB SEAP reporter activity,[2]; [8],1
O=c1cc(-c2ccc(O)cc2)oc2cc(O)c([C@@H]3O[C@H](CO)[C@@H](O)[C@H](O)[C@H]3O)c(O)c12,NF-kB SEAP reporter activity,[2]; [7],0.939
same,NF-kB SEAP reporter activity,[2]; [8],0.988
O=c1cc(-c2ccc(O)cc2)oc2cc(O)c([C@@H]3O[C@H](CO)[C@@H](O)[C@H](O)[C@H]3O)c(O)c12 (library stock concentration (final ~1000-fold dilution): 10 mM),NF-kB SEAP reporter activity,[1]; agonist: LPS (TLR4) 0.1 ug/mL,1.09
same,NF-kB SEAP reporter activity,[1]; [4],1.06
same,NF-kB SEAP reporter activity,[1]; [5],1.09
same,NF-kB SEAP reporter activity,[1]; [6],1.03
CCn1c2ccccc2c2cc(Nc3ccnc(NCCCN4CCOCC4)n3)ccc21,NF-kB SEAP reporter activity,"[2]; library stock concentration (final ~1000-fold dilution): 10 mM, cytotoxicity flag (confluency mask): cytotoxic (confluency <70% of control), agonist: Imiquimod (TLR7) […]",0.322
same,NF-kB SEAP reporter activity,"[2]; library stock concentration (final ~1000-fold dilution): 10 mM, cytotoxicity flag (confluency mask): cytotoxic (confluency <70% of control), agonist: MPLA (TLR4) […]",0.535
CCn1c2ccccc2c2cc(Nc3ccnc(NCCCN4CCOCC4)n3)ccc21 (library stock concentration (final ~1000-fold dilution): 10 mM),NF-kB SEAP reporter activity,[3]; agonist: LPS (TLR4) 0.1 ug/mL,0.416
same,NF-kB SEAP reporter activity,[3]; [4],0.202
same,NF-kB SEAP reporter activity,[3]; [5],0.119
same,NF-kB SEAP reporter activity,[3]; [6],0.152
COC1CC2CCC(C)C(O)(O2)C(=O)C(=O)N2CCCCC2C(=O)OC(C(C)CC2CCC(n3cnnn3)C(OC)C2)CC(=O)C(C)C=C(C)C(O)C(OC)C(=O)C(C)CC(C)C=CC=CC=C1C (stereo not given) (library stock concentration (final ~1000-fold dilution): 10 mM),NF-kB SEAP reporter activity,[1]; agonist: LPS (TLR4) 0.1 ug/mL,0.705
same,NF-kB SEAP reporter activity,[1]; [4],0.901
same,NF-kB SEAP reporter activity,[1]; [5],0.487
same,NF-kB SEAP reporter activity,[1]; [6],0.539
COC1CC2CCC(C)C(O)(O2)C(=O)C(=O)N2CCCCC2C(=O)OC(C(C)CC2CCC(n3cnnn3)C(OC)C2)CC(=O)C(C)C=C(C)C(O)C(OC)C(=O)C(C)CC(C)C=CC=CC=C1C (stereo not given),NF-kB SEAP reporter activity,[2]; [7],1.63
same,NF-kB SEAP reporter activity,[2]; [8],0.942
CC(C)c1ccc2oc3nc(N)c(C(=O)O)cc3c(=O)c2c1 (library stock concentration (final ~1000-fold dilution): 10 mM),NF-kB SEAP reporter activity,[1]; agonist: LPS (TLR4) 0.1 ug/mL,0.922 and 0.879
same,NF-kB SEAP reporter activity,[1]; [4],1.21 and 0.977
same,NF-kB SEAP reporter activity,[1]; [5],1.02 and 1.01
same,NF-kB SEAP reporter activity,[1]; [6],1.24 and 0.93
CC1CN(CC(Cc2ccccc2)C(=O)NCC(=O)O)CCC1(C)c1cccc(O)c1 (stereo not given) (library stock concentration (final ~1000-fold dilution): 10 mM),NF-kB SEAP reporter activity,[1]; agonist: LPS (TLR4) 0.1 ug/mL,1.51
same,NF-kB SEAP reporter activity,[1]; [4],1.01
same,NF-kB SEAP reporter activity,[1]; [5],0.937
same,NF-kB SEAP reporter activity,[1]; [6],0.609
CC1CN(CC(Cc2ccccc2)C(=O)NCC(=O)O)CCC1(C)c1cccc(O)c1 (stereo not given),NF-kB SEAP reporter activity,[2]; [7],1.03
same,NF-kB SEAP reporter activity,[2]; [8],1.01
C=C1CCC(O)CC1=CC=C1CCCC2(C)C1CCC2C(C)CCCC(C)C (stereo not given) (library stock concentration (final ~1000-fold dilution): 1 mM),NF-kB SEAP reporter activity,[1]; agonist: LPS (TLR4) 0.1 ug/mL,0.593
same,NF-kB SEAP reporter activity,[1]; [4],1.12
same,NF-kB SEAP reporter activity,[1]; [5],1.12
same,NF-kB SEAP reporter activity,[1]; [6],1.27
C=C1CCC(O)CC1=CC=C1CCCC2(C)C1CCC2C(C)CCCC(C)C (stereo not given),NF-kB SEAP reporter activity,"[2]; library stock concentration (final ~1000-fold dilution): 1 mM, cytotoxicity flag (confluency mask): not cytotoxic, agonist: Imiquimod (TLR7) […]",1.17
same,NF-kB SEAP reporter activity,"[2]; library stock concentration (final ~1000-fold dilution): 1 mM, cytotoxicity flag (confluency mask): not cytotoxic, agonist: MPLA (TLR4) […]",0.651

# Reference: the supplement of paper PMC10037445
